Experimental data from the supplement of paper PMC10126150.
Sequences with one replicate were seen in a single cluster, so their values are uncertain.

Test system: ATP
Test: switch fluorescence ratio, 500 uM ATP over buffer (Cy3 cluster intensity, sum of 5 cycles each) (fold (ratio)); higher = stronger signal-on switching upon ATP binding; sequences stand for … in TCGTCGGCAGCGTCAGATGTGTATAAGAGACAGTTTTTTTTTTTTTTTTTTTTTTTTT…TC
Settings: aptamer strand: ATP DNA aptamer (quencher-CACCTGGGGGAGTATTGCGGAGGAAGG + anchor), 100 nM annealed; ATP concentration: 500 uM; one replicate
In short: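 Five buffer/ATP imaging cycles were run on Cy3-labelled switching-strand clusters on a modified Illumina MiSeq flow-cell, with NaOH stripping and re-annealing between cycles. In each cycle, clusters annealed to 100 nM quencher-labelled ATP aptamer were imaged in selection buffer, then after 15 min with 500 uM ATP at 22 °C. Per cluster, the fluorescence ratio is summed target-cycle over summed buffer-cycle Cy3 intensity, averaged per switch-domain sequence. Only clusters within 100-1000 RFU were kept.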
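Note: ATP exposure 15 min at 22 °C before imaging.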

Sequence: GACGCCAAGT
- switch fluorescence ratio: 1.07

Sequence: GAATATCAGG
- switch fluorescence ratio: 1.02

Sequence: GAGGCAGCGG
- switch fluorescence ratio: 1.07

Sequence: TGGATGGATG
- switch fluorescence ratio: 1.06

Sequence: CGATGTGGCG
- switch fluorescence ratio: 0.934

Sequence: GCTTAGACTC
- switch fluorescence ratio: 1.07

Sequence: ATGATAATAG
- switch fluorescence ratio: 0.981

Sequence: CGTTCTCTGG
- switch fluorescence ratio: 0.976

Sequence: GAAAATCTTG
- switch fluorescence ratio: 1.1

Sequence: ACATAGTTCG
- switch fluorescence ratio: 1.05

Sequence: CAGAATGATA
- switch fluorescence ratio: 0.992

Sequence: ACAGGGGATT
- switch fluorescence ratio: 0.977

Sequence: AGAAACGTGA
- switch fluorescence ratio: 1.08

Sequence: AGGTGCAGGT
- switch fluorescence ratio: 1.06

Sequence: TCTATTCATA
- switch fluorescence ratio: 1.01

Sequence: GCACAAAGCG
- switch fluorescence ratio: 1.04

Sequence: GGGTTGCGCG
- switch fluorescence ratio: 0.994

Sequence: GTATGTGCGA
- switch fluorescence ratio: 1.02

Sequence: ACCGCGCCGG
- switch fluorescence ratio: 0.956

Sequence: GGACTTGGCG
- switch fluorescence ratio: 0.98

Sequence: GAGGTCCTGA
- switch fluorescence ratio: 1.01

Sequence: TGATGTGCCC
- switch fluorescence ratio: 1.01

Sequence: GGCGTATCAT
- switch fluorescence ratio: 0.967

Sequence: AGGAACCCGT
- switch fluorescence ratio: 0.993

Sequence: TTCGAAGCTT
- switch fluorescence ratio: 1.07

Sequence: GTTATACTGA
- switch fluorescence ratio: 0.962

Sequence: ATTCACTTGC
- switch fluorescence ratio: 1.04

Sequence: TGGTAAATGA
- switch fluorescence ratio: 1

Sequence: TTTCTAATCT
- switch fluorescence ratio: 0.929

Sequence: ACGGCGTTAC
- switch fluorescence ratio: 1.42

Sequence: CCATTTTCAC
- switch fluorescence ratio: 1

Sequence: AGCAGATGGG
- switch fluorescence ratio: 0.985

Sequence: TCGTTGTTGT
- switch fluorescence ratio: 0.976

Sequence: CTAGTATCGA
- switch fluorescence ratio: 1.03

Sequence: GACGAACTTT
- switch fluorescence ratio: 1.21

Sequence: CAAAAACTA
- switch fluorescence ratio: 1.01

Sequence: GCCTCAATCC
- switch fluorescence ratio: 1.53

Sequence: AACTGAATGC
- switch fluorescence ratio: 1.06

Sequence: ATATCACAAC
- switch fluorescence ratio: 1.02

Sequence: AATACTTCCT
- switch fluorescence ratio: 1.93

Sequence: TTCGTCGTAG
- switch fluorescence ratio: 1

Sequence: TTTTGCCGAA
- switch fluorescence ratio: 0.993

Sequence: TCAAGAAAAC
- switch fluorescence ratio: 1.01

Sequence: GTCAGAAGGG
- switch fluorescence ratio: 0.983

Sequence: TTAGTCGGGC
- switch fluorescence ratio: 0.985

Sequence: ATAGTTTTAC
- switch fluorescence ratio: 0.967

Sequence: CAAGGCTATT
- switch fluorescence ratio: 1.05

Sequence: GCGAGCGAAG
- switch fluorescence ratio: 0.977

Sequence: TTTTACCAAT
- switch fluorescence ratio: 1.03

Sequence: CTAGGCGAGA
- switch fluorescence ratio: 1.03

Sequence: CTTCACTCTT
- switch fluorescence ratio: 1.02

Sequence: TACGGTTAAT
- switch fluorescence ratio: 1.05

Sequence: TTATGCTAG
- switch fluorescence ratio: 1.02

Sequence: GAACAACTTT
- switch fluorescence ratio: 1.05

Sequence: AGTGCAGATC
- switch fluorescence ratio: 1.06

Sequence: CGACTGTACG
- switch fluorescence ratio: 1.06

Sequence: TGGCGATTCG
- switch fluorescence ratio: 0.986

Sequence: GCACTCAGGT
- switch fluorescence ratio: 1.13

Sequence: AACTTCCAGA
- switch fluorescence ratio: 1.02

Sequence: GGACGAGAAC
- switch fluorescence ratio: 1.09

Sequence: CATAGTGAGA
- switch fluorescence ratio: 0.981

Sequence: CTTTGCCTCT
- switch fluorescence ratio: 0.954

Sequence: ACATCCTTCA
- switch fluorescence ratio: 1.6

Sequence: CGTTGATACG
- switch fluorescence ratio: 1.02

Sequence: GTGTGAGGTA
- switch fluorescence ratio: 0.963

Sequence: GGGTGCGGGG
- switch fluorescence ratio: 1.02

Sequence: GCATTAATAT
- switch fluorescence ratio: 1.11

Sequence: AGGTCGCTCT
- switch fluorescence ratio: 0.974

Sequence: GTCGGAGG
- switch fluorescence ratio: 0.996

Sequence: TTAACTGTCG
- switch fluorescence ratio: 1.01

Sequence: TACTTTTTCG
- switch fluorescence ratio: 0.978

Sequence: TTGTGTGGA
- switch fluorescence ratio: 1.04

Sequence: GAGAGCCCGC
- switch fluorescence ratio: 1.04

Sequence: TACTTTTGTT
- switch fluorescence ratio: 1.02

Sequence: GTCGCCGCCG
- switch fluorescence ratio: 1.04

Sequence: CACGGTAGGA
- switch fluorescence ratio: 1.07

Sequence: AGATTATGCG
- switch fluorescence ratio: 1

Sequence: ACGGATGGTC
- switch fluorescence ratio: 0.977

Sequence: ACTGAGTAGA
- switch fluorescence ratio: 1.02

Sequence: CCGATAGGTT
- switch fluorescence ratio: 1.02

Sequence: GTTTCAGACT
- switch fluorescence ratio: 1.02

Sequence: GGGGGCCAAT
- switch fluorescence ratio: 1.02

Sequence: CGGGTCCATA
- switch fluorescence ratio: 1.03

Sequence: AGGATACAAC
- switch fluorescence ratio: 1.02

Sequence: CGGATTCGGG
- switch fluorescence ratio: 0.96

Sequence: AATATTCCCA
- switch fluorescence ratio: 1.05

Sequence: TAAGGTCTAA
- switch fluorescence ratio: 1

Sequence: GTTATTAAGA
- switch fluorescence ratio: 1.03

Sequence: AAAAGTTAA
- switch fluorescence ratio: 1.05

Sequence: GACTCCCGAT
- switch fluorescence ratio: 3.39

Sequence: GCAGTTTTTA
- switch fluorescence ratio: 1.01

Sequence: CGGGAGGATA
- switch fluorescence ratio: 1

Sequence: CGCGCTGTTA
- switch fluorescence ratio: 1.02

Sequence: CGGTGCGGC
- switch fluorescence ratio: 0.942

Sequence: TAGGCTAACT
- switch fluorescence ratio: 1.02

Sequence: TACTTGTGT
- switch fluorescence ratio: 0.982

Sequence: GCGTTTCCGA
- switch fluorescence ratio: 1.03

Sequence: CAGTCGATAC
- switch fluorescence ratio: 5.05

Sequence: ATGTGGGCCA
- switch fluorescence ratio: 0.966

Sequence: GCAATTTAAT
- switch fluorescence ratio: 1.01

Sequence: TAAAACGGGT
- switch fluorescence ratio: 1.01

Sequence: TGCGGCACTC
- switch fluorescence ratio: 1.14

Sequence: TAGTACGTGG
- switch fluorescence ratio: 0.987

Sequence: AAGGAAGAGT
- switch fluorescence ratio: 1.05

Sequence: GCGGAAATGA
- switch fluorescence ratio: 1.01

Sequence: GATGAGAAAG
- switch fluorescence ratio: 1.02

Sequence: CCTTGACTCC
- switch fluorescence ratio: 1.42

Sequence: TGAGATCTTT
- switch fluorescence ratio: 1

Sequence: CAAGAATAG
- switch fluorescence ratio: 0.989

Sequence: TCGAGACAGT
- switch fluorescence ratio: 1.06

Sequence: TCCCGTTTCA
- switch fluorescence ratio: 0.963

Sequence: ACGGTGAATA
- switch fluorescence ratio: 1.05

Sequence: GCGTGAAAAC
- switch fluorescence ratio: 1.02

Sequence: AGGTAGGAAC
- switch fluorescence ratio: 1.23

Sequence: GATACTCGGG
- switch fluorescence ratio: 0.953

Sequence: CGTTTCCATA
- switch fluorescence ratio: 0.952

Sequence: TAGCGTGTCT
- switch fluorescence ratio: 0.986

Sequence: CGAGCTGATG
- switch fluorescence ratio: 1.02

Sequence: TACGTCCGCT
- switch fluorescence ratio: 1.35

Sequence: ATCCTTTTAA
- switch fluorescence ratio: 0.969

Sequence: GGTTTCGTTA
- switch fluorescence ratio: 0.944

Sequence: ACACCCTTAG
- switch fluorescence ratio: 1.14

Sequence: GTCCATATGT
- switch fluorescence ratio: 1.03

Sequence: AGATTAGGAA
- switch fluorescence ratio: 1.01

Sequence: CGTATCGTTT
- switch fluorescence ratio: 1.01

Sequence: TCAGTGGGCA
- switch fluorescence ratio: 0.989

Sequence: TTATAATAAT
- switch fluorescence ratio: 1.04

Sequence: TCCATCAGCC
- switch fluorescence ratio: 0.997

Sequence: AGAAAACGG
- switch fluorescence ratio: 1.08

Sequence: GTTTAGCGGG
- switch fluorescence ratio: 0.979

Sequence: ATTAATTTCA
- switch fluorescence ratio: 1.01

Sequence: TGGGTACGAA
- switch fluorescence ratio: 0.981

Sequence: CAAGGTAGTT
- switch fluorescence ratio: 1.01

Sequence: CTACTGGCAT
- switch fluorescence ratio: 1.05

Sequence: ACGCGAAAGG
- switch fluorescence ratio: 1.04

Sequence: CGAAGCACTT
- switch fluorescence ratio: 2.04

Sequence: GAGCCAGTCG
- switch fluorescence ratio: 1.04

Sequence: CTAAGCGTA
- switch fluorescence ratio: 0.992

Sequence: TGGCCAAGGC
- switch fluorescence ratio: 1.02

Sequence: TTTGATGCTT
- switch fluorescence ratio: 0.995

Sequence: AGCTTGGGGT
- switch fluorescence ratio: 0.94

Sequence: CCTGTCAGTT
- switch fluorescence ratio: 1.02

Sequence: CGACCTTTCA
- switch fluorescence ratio: 1.08

Sequence: TGAAAACTAG
- switch fluorescence ratio: 1.01

Sequence: ATGAAGCTAC
- switch fluorescence ratio: 4.89

Sequence: CCTTGCAGG
- switch fluorescence ratio: 1.21

Sequence: GAACTAAACA
- switch fluorescence ratio: 1.04

Sequence: TGTTTCGTAT
- switch fluorescence ratio: 0.986

Sequence: TTTGGATC
- switch fluorescence ratio: 1.04

Sequence: AGGTCTTGTA
- switch fluorescence ratio: 0.965

Sequence: TTAATAAGTT
- switch fluorescence ratio: 1.03

Sequence: TCTTAAAAAC
- switch fluorescence ratio: 1.03

Sequence: CATTGTTTGG
- switch fluorescence ratio: 0.977

Sequence: ACCAATCAGC
- switch fluorescence ratio: 1.02

Sequence: TATTTGGTCA
- switch fluorescence ratio: 0.963

Sequence: TAGTGCGGGG
- switch fluorescence ratio: 0.974

Sequence: GCTACTTCGC
- switch fluorescence ratio: 1.19
